Experimental data: paper PMC10726135
This is one part of the list. At the low end of the ranking, values are background and their order means little. Measured with an extract: partners may take part in the binding.

Biological target: T1, HNF4alpha8 (COS-7 nuclear extract) (UniProt P41235-5)
T1 sequence: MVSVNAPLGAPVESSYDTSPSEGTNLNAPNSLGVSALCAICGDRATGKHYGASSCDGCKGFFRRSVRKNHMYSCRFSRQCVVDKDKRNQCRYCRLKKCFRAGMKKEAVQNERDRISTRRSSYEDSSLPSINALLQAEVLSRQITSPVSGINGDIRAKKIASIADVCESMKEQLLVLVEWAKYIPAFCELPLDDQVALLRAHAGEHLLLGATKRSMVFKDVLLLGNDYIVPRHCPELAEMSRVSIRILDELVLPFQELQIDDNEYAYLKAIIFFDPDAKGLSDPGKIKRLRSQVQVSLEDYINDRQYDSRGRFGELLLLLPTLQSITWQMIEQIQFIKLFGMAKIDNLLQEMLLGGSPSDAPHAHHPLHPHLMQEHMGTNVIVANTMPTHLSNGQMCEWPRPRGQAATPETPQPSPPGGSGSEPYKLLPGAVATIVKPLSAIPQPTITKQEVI
Assay: protein-binding microarray
Conditions: COS-7 nuclear extract on double-stranded Agilent 4x180k PBM; binding buffer, salt, pH and temperature not given; high values mean tight binding; double strand, one strand shown; sequences stand for … in …GCCTAGGGAGATTAGAGTATCGGTCGA

Sequence	binding signal (log2 normalized intensity)
GGGAGAGGAGTTTGTTCACCCACCAGAGGG	-1.17
GGTCCTCTGCTGCCCTCTAGGGTTGCCCAG	2.11
AGTCCCTGTCCCTTCTTGGCAAGTTAATGT	1.57
TCCTCTCCCAGCCCCTAGCCCTAAGCAGGC	3.03
TCTTCTTAGCCTTTGAACCCCACACCTCCC	5.21
AAATCCCAAGCAGTGATATTCTCTCGTCAC	-0.989
CCACAGAAAAGGCAGCAGCTTGGAATGTCA	-1.49
CAATAAGGACTTTGGACCGTCTTGTGGATC	6.72
ATTGAGAAAGATTAAGAGGCTACAACCAGA	-1.2
AGACATCACCTGCTCATTGACCCTTAGGCC	4.59
ACCTTTGCCTTCTTGACATCTCTCTCTGCA	-0.0607
TGACAAAATAACGAAGGCATTCTTAACAAA	-1.31
TACAAAGGTGACTTGCCCAGACACACCTGC	-1.31
ACAATTTGAGGGGTCAAGAAGACCTGGGCT	-0.805
TGGATGGATCCGCAGCCAGGGCTGTTTTCT	-1.06
CTTATACTTGAGGTATGATGCATCCTGAGG	1.06
TTGATGCCTGTTGCTCAGAATTACTGACTC	0.373
GAACTGAGTTTAGAATTTGAACTATGGTCA	5.62
GCTCTGGGCTAGTCCCTGAGTATTATCTTT	0.55
CATGGGCTGTCACCTTTACCCCCACTCTCC	4.93
TCTAACAGCTGATGAGGCACCAACACTTCC	-1.3
CCTATGAGCCAAACACCATGCTAGGCTTCT	-1.23
TAAGTGACCCAGGAGGAGAAGGGTGGGAAT	-1.25
AAGACTTTGGACTTTGGACCTGAGGCTTTT	10.3
CTCTGGCCACTGCAGGGAGGACAGACTCTG	-1.27

Sequence	binding signal (log2 normalized intensity)
GCTGAGGCCCAGGAAGCTCCAGCGGGGTTT	-1.34
ATCTGCAAATGCTTCTCCTGGCTTTAGATA	-1.27
TATCAGCTTTGAGACACCTGGCCAAGTACA	-0.899
CACATTCCTAGACCTTTGACCTTTATACCT	8.55
ATATGAAAGAGCCATGGACTGCTGACCTTT	7.13
TCCAAAGTTCTGAATGAGCAGACTGAGTTG	-0.933
TCTCAGGGTCCACATTCCAGGAATATTCAG	0.846
TCCTCCCCTCCCCTCCCCCCACTCAAAATA	6.78
CAATCCCATGACCTTTGTACTAATGATTTG	6.73
CCAAATAGGTCCCTGCTTCCAAGTCTCAGC	-1.33
CCTCCAATCAGGACAGACTGGTTGATCTGG	1.05
CTGATCACTACAAGCTTTGAAGGCAAGATA	-1.34
CGCAGATCCCCGCTCCCCTCCCCCACCCGC	6.34
CAATCTTCTGGCCCCATCTATCTAGCCTGA	0.823
TCTAGGGTTGCCCAGGGAGAGCTGGACTTT	6.83
ATTGTGCTGACTGGTTGGAATTCCAGTGTT	1.19
CCTCAGTGTGGGACTTTGGTCTGCTGAGTC	3.95
CAACATGGACTTTGAGTCATAAGAAACATT	4.28
CTCTGAATCCTCAACATCCAGCACAGTGCT	-1.34
ATTCGTTCATCAGATTAGAAGGCAGAGAAA	0.72
CTGTTGTGACATACTGCCTTTCTAGAACCA	-1.27
TGTCTACAAACACAGAAGTGGACCTTCACC	5.41
GGGCAGGGTCAGAACCTGCCCATGACCTTT	6.45
GCAAGGGTGGTGACAAAGACAGATTAGATC	-0.00202
AATCTCTCAAATCTAGCCAATGATGCTAGC	-1.28

Sequence	binding signal (log2 normalized intensity)
CAGAGTCACCTGTAGGGATGTGGGACTTAA	0.446
ATTCTCCCATTTTATGGGCTAACGCTGCTG	-1.4
AGGGTTGAAGAAAGATCACACAAATGGATC	-1.25
AAAGTCCGGAATTTCCTCCTGGCAGAGCAT	-0.791
TCTTTTTGTTGTTAGAACAAAGTCCAAATT	6.11
AGTCAGTCAAAATGAATAGTCCTTTAGGAA	0.806
TCCCGAAAGTGACCCTCTGCCCCCTACACA	5.92
TTGTTAGACCCTTATCAGTAGTTCTCCTTT	0.79
CCCCACTGAAAGTGTGTTAAATTGAATTGG	0.492
GGTCCAAGGTTCAGAGCCTGGCTGGCCTGG	1.5
CCATCCTACAGGGTATGAATTTAACCTTTG	4.92
TCCATCATTCATACATTTGCCTGAACTTTA	3.06
AAATGTTATGGCTGGTTTGGTCTTTTATCT	1.9
CCCTGGACCTTGTCATACTGGTTGAATGGA	2.73
GGGTACAGACAATAGGAAGAGTGAGGTCAC	2.23
ATCACGGACTATCCCCGTCCGCGGAAGCAC	0.356
TTATTTCCCCTTTCTGTTGGAAGCTGATAA	1.53
AATTCACGTCATTTTGTCACCTACATGTGA	1.31
TTTCTGAAGACCTTCAACTGATTAGATAAG	-1.01
AAGTGCAAGGGCCCAGAGGAAGGAATGCAC	-0.828
GTCGAAACTACAAACGGATATTTGATCAAA	0.459
GGCGATAACTCCTTTGTGTGAATCGACCTT	4.32
AGGGTACACACCGTTAGCCAATATTTGCAA	-1.26
TGTGATAAGAAATGAATGTCACTTTCTGAC	0.366
ACCCAGTGAATTCCTTCCTTATCAGCAGCC	-1.24

Sequence	binding signal (log2 normalized intensity)
TGGGCCAGGTATTTGGACTTTTTGTAGTTT	3.34
AGGCCTTCAACTGATAAGAAGGGGCCTAGC	-1.14
GCGTAGTTCAGAGAAAACGAGGCACTATCT	-1.28
CTTTTGAGGGTGACCGATCGTTATTGCCTT	0.556
CTCAAAGTCCACCAACTCTGTGAATTCATT	1.24
GGGTTGAGTGGTGACTGAAGTCCAACCCTC	2.99
AACCTGGCTGCGAGTCCCTGCTGTGTCACG	-0.901
ATCAATACCAGCCAATTAGAAGGCTCCCTG	-1.37
AGCTCCCCTTTTAAACTGAAGCATGCTATT	0.869
TCTGCCGAAGATATTTAACCTAAATCTAGT	-1.36
ATCAAACAGATGTAGACATTGGAATGCGGG	1.17
AACTATTGAGACTTTGGGGTTTTATGGCAC	1.3
TCAACAATTCTATGAGTAGGTACAAATTCC	2.45
GAGATTACATTTGACTGAGGTGCAGGACAA	-0.867
ACAAAGTCTATGCTAAGATGGTCTCAGGTG	1.07
TCAGCAGAAGGCCCCAGGTGAACCAGGGTG	-1.19
TTTTCCTCGGGTGTCTCCGAGATAAGGCGT	-0.295
CTGGCAAAGCCATGAAGCAATTCTGAGCCC	-1.37
GTGACCTTAGACCCCTGAATAGGTCTTGGA	3.72
ATATTATCATTGCCTCTGGTATGCAGAAAA	1.52
GTCTGTGTTCACATAGGGGCCTTTAGCACC	1.52
AATCTGCAGCCGCCGGAGAATTAAACTGCC	-1.38
AGGATGAGAATCCACCTGCCTGCTTGGCCT	-1.42
GGAATGCTATTTGCATTGACACAACCCAAC	-1.32
GCAGTGATCAGTGTTGAGAATCCCTCCCCT	3.51

Sequence	binding signal (log2 normalized intensity)
TGGCATTCTTGAGCTACCGCCTGAACCTTG	2.81
AACCCTGGCCACTCCCTGATAGAGAACAAG	-1.32
TTTGCAACCTTTGATAACCTACAACCTTCT	1.19
AGGCTGAAGGGAAGCTCTGGGAGTGCCCTT	2.63
AGAGAAACAAATCTGCTTTCTACCCTGAGG	-1.15
CTGCTAACAGATAAAGGGTGGTAAAGATGT	0.032
CACAGAGCAAAGGTCATGCATAGAAGTATG	4.43
TGTCTCACCTCGCTATCACCCCGATAAGGA	3.03
GGGCTCAAACAATCCTCCCACCTCAGCATC	1.23
TCCCCACCTTCCATTACCACATTCTCACCA	1.22
CCAGTTGGTGGGTCAAGGTGCAAAGAGATG	2.79
CTTTGATAGCCAAGCCAACCAGGAGAATTT	2.31
CTTTAACGACCTTTGGACTTGAATTATCCT	8.83
CTAACCTTGAGGAGCCCTATCCGCAGCTGC	-1.39
TAAAGTATGTGGTGGGTGTGGTGATGGCAG	1.01
TTACACTGGCTGCCCTGGGGATCAAAGCGT	-0.422
TTGACTCTTCCCATCTAACTGCCCCTGATA	4.03
TATCCAGTCAATCCCGTGGACTTTGCCTGC	7.09
GAACATCTGATTTCCCCGTCCCAAGCTGAG	3.49
GTCAACAGCCAGCCTCAAAGATCAAAGGTA	3.25
CAAAGGGCTTATTTTAGGAGCCTCCAATCA	-1.31
GGGCCCTGACCTCAAGTGACCTTTGACCTC	12
GAACAAAGGTTGGTGTGAACCAGGGTTAAG	1.59
AAGTTCAAGTAGATAAAATCAAACAGATGT	0.359
AAAAGTATGTCATAATGTACTCCACTGTGC	0.829

Sequence	binding signal (log2 normalized intensity)
TGAACTATTGAACCACCAGATAGAGCTTTT	0.654
GCATTAGTTATATCTTACCTCCTTCTCCCC	3.09
GATACAGTTATGAAAAGAAACAGCCAAAAG	-1.34
TTGAGAGAGATTAAAGGTCAAGCCCAACCA	4.41
TTATTGATAACCCTATAAGGTAGAATCTAT	-0.743
GACCTGTATCTTGTGGTGACCTCTTATCTC	3.97
AACAACCCATCCTTGACACATCTGATTAGA	-1.31
TGTTGTTGATTTAACATTTGTGATCTGGCA	1.59
CTGCAGAGAACAGCAGCTATCAGTGGTCCG	1.36
TGGACAGTGTCTGACTAGAGTGGAGTGAAG	-1.21
TTCCTGACCCCTCCTCCCCCCGCCGCATCT	6
CCTTGCAATGCTGGAGGGACTGTGATGAAG	-0.962
CGATAATAGAGATTGCTTAATGCAAACTCC	-1.38
GTGACCAAGAATGTCTAACCTCCTGGGAAT	-1.27
ACCTTTGACCCTTCTCTGGGAGAAAGGGAG	3.86
GCAAGGGCCCCCACTAGAGAGACCGTCCCT	2.63
ACATTCTTTAGCATATTACACCTGTAGCTT	0.621
GACAGGGTAATTTACAGAACTCTTCGAAGA	-1.16
CTTGGATCCTCAGGGTTCATAGATGATAGT	1.42
ATCACTCAAGAAATGGCAGTTTTAAGAGCT	-1.34
